Results on one substance are retold here after patent US12258574B2, “Methods and compositions for transducing lymphocytes and regulating the activity thereof” (Exuma Biotech Corp., priority 2016, dated 2025).

The series can be described thus: Thermal denaturation by differential scanning calorimetry (DSC). The settings on record: presence of acyclovir (29.4 μM); 2.77 μM F1A-795, 1X Binding Buffer.

“F1A-795: acyclovir aptamer candidate, most prevalent sequence of family 795; SEQ ID NO:164 (ACAGCGAAGCATAATGGCTACTGACGCCCTCAAACCCTATTTGCAGACT; RNA riboswitch aptamer, listed DNA covers non-stem region only, further chemistry not given here) [Candidate F1A-795]”: the thermal denaturation transition entry is “about 75 °C”.
